Our source for the AUC and IC50 values is the supplement of paper PMC4967469.

Common to all, as to experiment: Viability of human cancer cell lines after 72 h of drug (GDSC screen)
Compound in assay [1]: C/C(=C\c1csc(C)n1)[C@@H]1C[C@@H]2O[C@]2(C)CCC[C@H](C)[C@H](O)[C@@H](C)C(=O)C(C)(C)[C@@H](O)CC(=O)O1 [Epothilone B]
As to conditions: top dose 0.032 µM; top dose inferred. How it is done:
(§1)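 Human cancer cell lines in 384-well plates, medium with 10% serum, drug for 72 h over a 256-fold dose range (nine 2-fold or five 4-fold steps up to the top dose). Adherent lines were fixed and stained with the nucleic acid dye Syto60, suspension lines read with resazurin; signal relative to control wells, capped at 0 and 100%. One two-parameter sigmoid per drug and line, fitted in a mixed model over all curves with the slope shared within a line.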

Compound in assay [2]: CC(C)CC(=O)Nc1n[nH]c2c1CN(C(=O)C1CCN(C)CC1)C2(C)C [PHA-793887]
Conditions: top dose 10.24 µM. How it is done:
as §1

Compound in assay [3]: CCCS(=O)(=O)Nc1ccc(F)c(C(=O)c2c[nH]c3ncc(Cl)cc23)c1F [PLX4720]
As to conditions: top dose 10 µM. How it is done: as §1

Compound in assay [4]: C[C@@H](N)c1ccc(C(=O)Nc2ccnc3[nH]ccc23)cc1 [Y-39983]
Conditions: top dose 20 µM; top dose inferred. How it is done: as §1

Compound in assay [5]: NC(=O)Nc1sc(-c2ccc(F)cc2)cc1C(N)=O [TPCA-1]
Conditions: top dose 20 µM. How it is done: as §1

Where [6] appears, read: screen: GDSC drug entry 1371, top dose inferred.

pIC50: −log10 of the molar value. The IC50 comes from the fitted curve, where viability falls to half of the control; a limit (>, <) means that the fit lies beyond the doses tested. AUC is the area under the same curve over the 256-fold range up to the top dose, as a fraction; it is 1 without any effect and falls as sensitivity rises. For some assays here: An inferred top dose was derived from the fitted curves, not read from the paper. For some assays here: Where an entry number is given, a second screen of the drug exists; the two often differ. Bounds are passed on as bounds.

The pIC50 is the negative decadic logarithm of the IC50, by convention in mol/L.

For the cell line AU565 (breast, adherent), the AUC in assay [1] was determined as 0.584; in assay [2], 0.891; in assay [3] (screen: GDSC drug entry 1036), 0.973; in assay [3] (setting [6]) it was 0.982; in assay [4], 0.904; in assay [5] it was 0.976. Also, the pIC50 in assay [1] was 8.46; in assay [2] it was less than 4.99; in assay [3] (screen: GDSC drug entry 1036), less than 5.00; in assay [3] (setting [6]), less than 5.00; in assay [4], less than 4.70; in assay [5] it was less than 4.70.

In the case of AsPC-1 (pancreas, adherent), the AUC was 0.879 in assay [1]; 0.92 in assay [2]; 0.92 in assay [3] (screen: GDSC drug entry 1036); 0.888 in assay [3] (setting [6]); 0.965 in assay [4]; 0.859 in assay [5]. In addition, the pIC50 in assay [1] is less than 7.49; in assay [2] it was less than 4.99; in assay [3] (screen: GDSC drug entry 1036), less than 5.00; in assay [3] (setting [6]) it was less than 5.00; in assay [4], less than 4.70; in assay [5], less than 4.70.

For BCPAP (thyroid, adherent), the AUC in assay [1] was determined as 0.342; in assay [2] it was 0.814; in assay [3] (screen: GDSC drug entry 1036), 0.836; in assay [3] (setting [6]), 0.903; in assay [4] it was 0.921; in assay [5], 0.801. For the same cell line, the pIC50 in assay [1] was 9.12; in assay [2] it was 5.31; in assay [3] (screen: GDSC drug entry 1036), 5.24; in assay [3] (setting [6]) it was less than 5.00; in assay [4], less than 4.70; in assay [5], 5.06.

As for “BEN (non-small cell lung carcinoma, adherent)”, the AUC in assay [1] was 0.763; in assay [2], 0.968; in assay [3] (setting [6]) it was 0.985; in assay [4], 0.953; in assay [5], 0.865. Further, the pIC50 in assay [1] was 7.88; in assay [2], less than 4.99; in assay [3] (setting [6]) it was less than 5.00; in assay [4], less than 4.70; in assay [5], less than 4.70.

Regarding BFTC-905 (bladder, adherent), the AUC turned out to be 0.234 in assay [1]; 0.671 in assay [2]; 0.959 in assay [3] (screen: GDSC drug entry 1036); 0.972 in assay [3] (setting [6]); 0.977 in assay [4]; 0.91 in assay [5]. In addition, the pIC50 in assay [1] was 9.41; in assay [2], 5.75; in assay [3] (screen: GDSC drug entry 1036), less than 5.00; in assay [3] (setting [6]), less than 5.00; in assay [4], less than 4.70; in assay [5] it was less than 4.70.

For BFTC-909 (kidney, adherent), the AUC in assay [1] stood at 0.475; in assay [2], 0.988; in assay [3] (setting [6]), 0.924; in assay [4] it was 0.975; in assay [5], 0.965. The pIC50 is 8.77 in assay [1]; less than 4.99 in assay [2]; less than 5.00 in assay [3] (setting [6]); less than 4.70 in assay [4]; less than 4.70 in assay [5].

For the cell line BHT-101 (thyroid, adherent), the AUC in assay [1] worked out at 0.458; in assay [2] it was 0.985; in assay [3] (screen: GDSC drug entry 1036), 0.523; in assay [3] (setting [6]), 0.657; in assay [4] it was 0.962; in assay [5], 0.794. The pIC50 in assay [1] is 8.82; in assay [2] it was less than 4.99; in assay [3] (screen: GDSC drug entry 1036), 6.14; in assay [3] (setting [6]) it was 5.76; in assay [4], less than 4.70; in assay [5] it was 5.02.

For BHY (head and neck, adherent), the AUC was 0.288 in assay [1]; 0.815 in assay [2]; 0.966 in assay [3] (screen: GDSC drug entry 1036); 0.96 in assay [3] (setting [6]); 0.958 in assay [4]; 0.84 in assay [5]. Besides, the negative-log IC50 (pIC50) in assay [1] is 9.30; in assay [2], 5.25; in assay [3] (screen: GDSC drug entry 1036), less than 5.00; in assay [3] (setting [6]), less than 5.00; in assay [4], less than 4.70; in assay [5] it was 4.86.

In the case of BICR10 (head and neck, adherent), the AUC in assay [1] was determined as 0.797; in assay [2] it was 0.984; in assay [3] (screen: GDSC drug entry 1036), 0.96; in assay [3] (setting [6]) it was 0.981; in assay [4] it was 0.985; in assay [5], 0.984. Moreover, the pIC50 in assay [1] is 7.75; in assay [2] it was less than 4.99; in assay [3] (screen: GDSC drug entry 1036) it was less than 5.00; in assay [3] (setting [6]) it was less than 5.00; in assay [4], less than 4.70; in assay [5] it was less than 4.70.

As for BICR22 (head and neck, adherent), the AUC amounted to 0.751 in assay [1]; 0.906 in assay [2]; 0.856 in assay [3] (screen: GDSC drug entry 1036); 0.929 in assay [3] (setting [6]); 0.975 in assay [4]; 0.976 in assay [5]. Further, the negative logarithm of the IC50 (pIC50) in assay [1] is 7.92; in assay [2], less than 4.99; in assay [3] (screen: GDSC drug entry 1036), less than 5.00; in assay [3] (setting [6]) it was less than 5.00; in assay [4], less than 4.70; in assay [5] it was less than 4.70.

For the cell line BICR78 (head and neck, adherent), the AUC worked out at 0.719 in assay [1]; 0.951 in assay [2]; 0.967 in assay [3] (screen: GDSC drug entry 1036); 0.972 in assay [3] (setting [6]); 0.982 in assay [4]; 0.935 in assay [5]. For the same cell line, the pIC50 was 8.03 in assay [1]; less than 4.99 in assay [2]; less than 5.00 in assay [3] (screen: GDSC drug entry 1036); less than 5.00 in assay [3] (setting [6]); less than 4.70 in assay [4]; less than 4.70 in assay [5].
